Data reported in patent publication US20090155349A1, “METHODS OF TREATING INFLUENZA VIRAL INFECTIONS” (priority 2006, published 2009).
Where two headings read alike, the source gives them in different places.

Key:
[1] = test system: production of TNF-α by RAW 264.7 macrophages infected with influenza strain A/WS/33; experiment: TNF-α production, A/WS/33 infection, high MOI model, ELISA; type: cell-based, mouse; settings: for suppression of the induction of TNF-α: high MOI time course
[2] = test system: IL-6 production by RAW 264.7 macrophages
[3] = test system: LPS-induced production of PGE2 in RAW 264.7 macrophages; experiment: LPS-induced PGE2 production, prostaglandin E2 immunoassay; type: cell-based, mouse; settings: M4N 25 μM, LPS 1 μg/ml
[4] = test system: LPS-induced PGF1α production by RAW 264.7 macrophages; experiment: LPS-induced PGF1α production, ELISA; settings: M4N 25 μM, LPS 1 μg/ml, 16 h, two experiments
[5] = test system: cytokine production by RAW264.7 macrophages; experiment: Antibody array (mouse inflammatory array-1), cytokines with or without LPS; settings: for inhibition at 25 µM: Mus musculus
[6] = test system: TNF-α production in RAW 264.7 macrophages
[7] = test system: production of TNF-α by RAW 264.7 macrophages infected with influenza strain A/WS/33; experiment: TNF-α production, A/WS/33 infection, low MOI model, ELISA; type: cell-based, mouse
[8] = test system: IFN-β production by RAW 264.7 macrophages
[9] = test system: LPS-induced PGF2α production by RAW 264.7 macrophages; experiment: LPS-induced PGF2α production, ELISA; settings: M4N 25 μM, LPS 1 μg/ml, 16 h, two experiments
[10] = test system: production of PGE2 by RAW 264.7 macrophages infected with influenza strain A/WS/33; experiment: PGE2 production, A/WS/33 infection, high MOI model, ELISA; type: cell-based, mouse; settings: 24 hrs
[11] = test system: influenza-induced production of cytokines by RAW 264.7 macrophages; experiment: Antibody array (mouse inflammatory array-1), A/WS/33 infection, low MOI; type: cell-based; settings: 24 h
[12] = test system: production of TNF-α by LPS-stimulated RAW 264.7 macrophages; experiment: LPS-induced TNF-α production, mouse TNF-α ELISA; settings: M4N 25 μM, LPS 1 μg/ml, 10 hours post induction
[13] = low MOI conditions, 25 μM, no virus

COc1ccc(C[C@@H](C)[C@@H](C)Cc2ccc(OC)c(OC)c2)cc1OC [M4N, meso-1,4-bis(3,4-dimethoxyphenyl)-2,3-dimethylbutane]
inhibition at 25 µM ([1]; Mus musculus, RAW264.7, high MOI dose response, 25 μM, read-out: inhibition of the increased production of TNF-α by influenza infection): ~60%
inhibition at 10 µM ([1]; Mus musculus, RAW264.7, high MOI dose response, about 10 μM, read-out: inhibition of the increased production of TNF-α by influenza infection): ~34%
block of influenza-induced increase in the production of TNF-α ([1]; high MOI 5, 25 μM, 24 hrs (FIG. 13)): completely blocked
reduction of background TNF-α by EM-1421 alone ([1]; high MOI model, mock infected, 25 μM, 24 hrs): about 35%
suppression of the induction of TNF-α ([1]; 12 h): 51%
suppression of the induction of TNF-α ([1]; 24 h): 55%
levels of IL-6 detected following treatment with EM-1421 [2]: 10 pg/mL
suppression of LPS-induced PGE2 production ([3]; 6 hours): 72%
suppression of LPS-induced PGE2 production ([3]; 10 hours): 64%
suppression of PGE2 in the supernatants of the PGF1α experiment ([3]; 16 h, confirmatory measurement): more than 90%
suppression of LPS-induced PGE2 production ([3]; 16 hours): 80%
mean % suppression of LPS-induced PGF1α production [4]: 41%
production of BLC ([5]; EM-1421 25 μM alone, no LPS): reduced
production of IL-1α ([5]; EM-1421 25 μM alone, no LPS): increased
production of IL-4 ([5]; EM-1421 25 μM alone, no LPS): reduced
production of IL-9 ([5]; EM-1421 25 μM alone, no LPS): reduced
production of IL-12p40p70 ([5]; EM-1421 25 μM alone, no LPS): reduced
production of KC ([5]; EM-1421 25 μM alone, no LPS): reduced
production of MIG ([5]; EM-1421 25 μM alone, no LPS): increased
production of MIP-1α ([5]; EM-1421 25 μM alone, no LPS): reduced
production of MIP-1γ ([5]; EM-1421 25 μM alone, no LPS): reduced
increase of LPS-induced production of IL-12p40p70 ([5]; EM-1421 25 μM, LPS 1 μg/ml): about 43%
inhibition of LPS-induced production of G-CSF ([5]; EM-1421 25 μM, LPS 1 μg/ml): did not inhibit
inhibition of LPS-induced production of IL-6 ([5]; EM-1421 25 μM, LPS 1 μg/ml): did not inhibit
inhibition of LPS-induced production of IL-12p70 ([5]; EM-1421 25 μM, LPS 1 μg/ml): did not inhibit
inhibition of LPS-induced production of MIP1-α ([5]; EM-1421 25 μM, LPS 1 μg/ml): did not inhibit
inhibition of LPS-induced production of RANTES ([5]; EM-1421 25 μM, LPS 1 μg/ml): did not inhibit
inhibition at 25 µM ([5]; RAW264.7, read-out: inhibition of LPS-induced production of BLC): ~100%
inhibition at 25 µM ([5]; RAW264.7, read-out: inhibition of LPS-induced production of I-TAC): ~100%
inhibition at 25 µM ([5]; RAW264.7, read-out: inhibition of LPS-induced production of IL-1α): ~20%
inhibition at 25 µM ([5]; RAW264.7, read-out: inhibition of LPS-induced production of IL-2): ~100%
inhibition at 25 µM ([5]; RAW264.7, read-out: inhibition of LPS-induced production of IL-3): ~100%
inhibition at 25 µM ([5]; RAW264.7, read-out: inhibition of LPS-induced production of MCP-1): ~33%
inhibition at 25 µM ([5]; RAW264.7, read-out: inhibition of LPS-induced production of TIMP-1): ~30%
inhibition at 25 µM ([5]; RAW264.7, read-out: inhibition of LPS-induced production of TIMP-2): ~100%
inhibition at 25 µM ([5]; RAW264.7, read-out: inhibition of LPS-induced production of TNF-α): ~24%
inhibition at 25 µM ([5]; RAW264.7, read-out: inhibition of LPS-induced production of sTNFRI): ~63%
inhibition at 25 µM ([5]; RAW264.7, read-out: inhibition of LPS-induced production of sTNFRII): ~20%
inhibition of TNF-α production following induction with A23187 [6]: not observed
inhibition of TNF-α production following induction with PMA [6]: not observed
block of influenza-induced increase in the production of TNF-α ([7]; low MOI 0.002, 25 μM, 24 hrs): completely blocked
final concentration as low as which increased TNF-α production (medium alone or medium and influenza) was inhibited ([7]; low MOI dose response, 0.1, 1, 10, 25 μM tested): 0.1 µM
reduction of medium-induced TNF-α by EM-1421 alone ([7]; low MOI model, mock infected, serum-free infection medium, 25 μM, 24 hrs): about 67%
suppression of TNF-α induction over time ([7]; low MOI time course, 4, 12, 24 hrs): remained suppressed
induction of the production of IFN-β [8]: did not induce
mean % suppression of LPS-induced PGF2α production [9]: 82%
inhibition of A/WS/33 replication in RAW 264.7 macrophages (influenza virus A/WS/33; EM-1421 3 μM, 6 μM, 12 μM and 25 μM, MOI 0.002, added 30 min after infection): did not inhibit
enhancement of A/WS/33 production from RAW 264.7 macrophages (influenza virus A/WS/33; EM-1421 3-25 μM, MOI 0.002, added 30 min after infection): < 1 log
enhancement of A/WS/33 growth in pretreated RAW 264.7 cells (influenza virus A/WS/33; pretreatment 2 hrs, EM-1421 25 μM, 36 hr time point): 1 log
reduction of influenza-induced increase in the production of PGE2 ([10]; high MOI 5, 25 μM): 32%
increase of the level of PGE2 by EM-1421 alone ([10]; high MOI model, mock infected, 25 μM, PGE2 at low levels): about two fold
block of flu-induced production of G-CSF ([11]; 0.002 MOI A/WS/33, 25 μM): blocked completely
block of flu-induced production of MIP-1γ ([11]; 0.002 MOI A/WS/33, 25 μM): ~60%
block of flu-induced production of TNF-α ([11]; 0.002 MOI A/WS/33, 25 μM): completely blocked
inhibition of flu-induced production of MCP-1 ([11]; 0.002 MOI A/WS/33, 25 μM): did not inhibit
inhibition of flu-induced production of sTNF RII ([11]; 0.002 MOI A/WS/33, 25 μM): did not inhibit
block of medium-induced production of MIP-1γ [11, 13]: completely blocked
block of medium-induced production of TNF-α [11, 13]: completely blocked
maximal inhibition of LPS-induced TNF-α overexpression [12]: 57%
